Test results published in PMC4336329 (PLoS ONE, 2015).
In all, about 310,000 compounds went through this assay and about 2,200 (0.71%) showed an effect of 50% or more. Effects have a minus sign here. This is one part of the list.

Molecular target: human ether-à-go-go-related gene (hERG) potassium channel (human, UniProt Q12809)
Experiment: primary screen, population patch clamp on CHO cells stably expressing hERG

human ether-à-go-go-related gene (hERG) potassium channel, sequence (Q12809 whole entry, looked up): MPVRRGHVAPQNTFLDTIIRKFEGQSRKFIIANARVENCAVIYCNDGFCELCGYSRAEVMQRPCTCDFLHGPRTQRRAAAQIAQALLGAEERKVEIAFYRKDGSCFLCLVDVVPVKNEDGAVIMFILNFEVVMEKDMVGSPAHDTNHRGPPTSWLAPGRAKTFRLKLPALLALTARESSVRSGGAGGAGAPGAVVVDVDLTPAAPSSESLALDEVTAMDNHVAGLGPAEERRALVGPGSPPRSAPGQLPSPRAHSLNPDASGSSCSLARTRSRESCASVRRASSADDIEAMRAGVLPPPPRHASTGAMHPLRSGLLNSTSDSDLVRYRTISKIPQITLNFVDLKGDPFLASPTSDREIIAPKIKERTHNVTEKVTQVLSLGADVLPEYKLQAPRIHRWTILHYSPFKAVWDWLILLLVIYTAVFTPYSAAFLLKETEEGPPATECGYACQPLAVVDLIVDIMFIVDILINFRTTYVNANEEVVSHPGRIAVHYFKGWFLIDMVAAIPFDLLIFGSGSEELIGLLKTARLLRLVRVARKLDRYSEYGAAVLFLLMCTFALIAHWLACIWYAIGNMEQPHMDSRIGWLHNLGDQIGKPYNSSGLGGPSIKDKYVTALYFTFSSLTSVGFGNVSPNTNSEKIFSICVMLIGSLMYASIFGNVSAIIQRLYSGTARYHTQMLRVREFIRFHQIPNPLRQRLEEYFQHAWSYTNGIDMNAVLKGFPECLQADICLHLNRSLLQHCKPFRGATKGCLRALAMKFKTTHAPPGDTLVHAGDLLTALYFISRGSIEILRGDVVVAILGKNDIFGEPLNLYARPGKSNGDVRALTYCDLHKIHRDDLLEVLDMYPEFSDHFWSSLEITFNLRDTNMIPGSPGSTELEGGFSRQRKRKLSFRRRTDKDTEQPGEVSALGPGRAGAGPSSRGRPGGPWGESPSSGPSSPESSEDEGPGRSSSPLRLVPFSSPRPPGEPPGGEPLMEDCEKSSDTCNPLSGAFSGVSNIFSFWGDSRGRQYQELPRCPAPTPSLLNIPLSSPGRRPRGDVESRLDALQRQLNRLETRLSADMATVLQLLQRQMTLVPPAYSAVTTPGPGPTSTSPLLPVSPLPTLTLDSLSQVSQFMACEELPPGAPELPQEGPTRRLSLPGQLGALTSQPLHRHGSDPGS

Row | Structure (SMILES) | hERG current change (%, negative = inhibition) at 1uM [%]
1 | COc1ccc(-c2cc3c(=O)n(CC(=O)NCCCN4CCC(N5CCCCC5)CC4)nc(C)n3n2)cc1 | 7.62
2 | Nc1ccc(CN2CCCCCC2)cc1 | 18.7
3 | O=C(CNS(=O)(=O)c1ccccc1)NCc1ccccn1 | 4.41
4 | Cc1ccc(C=Nc2ccccc2C(N)=O)s1 | 16.6
5 | O=C(CCl)Nc1cccc(CP(=O)(c2ccccc2)c2ccccc2)c1 | 1.8
6 | Cn1nc(C(C)(C)C)cc1NC(=O)Nc1ccc(Cl)cc1 | 15.4
7 | CCOC(=O)C1=C(C)OC(N)=C(C#N)C1c1ccsc1 (stereo not shown) | 4.67
8 | COc1cc(OC)cc(C(=O)NCc2cc(C)nc3ccccc23)c1 | -0.926
9 | Cc1cccc(NP(=O)(Oc2ccccc2F)Oc2ccccc2F)c1 | 3.98
10 | CC(/C=C/c1ccc2c(c1)OCO2)=N/NC(=O)c1ccc(C)nc1 | 2.96
11 | O=C(C1c2ccccc2Oc2ccccc21)N1CCN(c2ccc(Cl)cc2)CC1 | 10.7
12 | Cc1cc(NS(=O)(=O)c2ccc(NC(=O)C(C)Oc3ccc(C(C)C)cc3)cc2)no1 (stereo not shown) | 18.5
13 | CCCN(CCC)CCCNC(=O)c1ccc2c(Cl)c3c(nc2c1)CCC3 | 4.97
14 | Cc1nc(N2CCN(c3ccccn3)CC2)c2c(C)c(C(=O)N3CCN(c4ccc(F)cc4)CC3)sc2n1 | 7.79
15 | CN(CC1CCCN(CCc2ccc(Cl)cc2)C1)C(=O)C(=O)c1ccco1 (stereo not shown) | -72.5
16 | CC(C)c1ccc(NC(=S)NN2C(C)CCCC2C)cc1 (stereo not shown) | 12.4
17 | Cc1cccc(-n2ccnc2CN2CCN(C3CCCC3)C(CCO)C2)c1 (stereo not shown) | -5.55
18 | CCOc1ccc(OCC)c(NC(=O)CC2Oc3ccccc3NC2=O)c1 (stereo not shown) | 8.61
19 | Cc1cccc(NCN2C(=O)C3C4C=CC(C4)C3C2=O)c1 (stereo not shown) | -3.98
20 | COC(=O)c1ccc(NC(=O)c2cc3sccc3n2C)cc1 | 5.86

Row | Structure (SMILES) | hERG current change (%, negative = inhibition) at 1uM [%]
21 | O=C(C1CCC1)N1CCc2cc(S(=O)(=O)N3CCCCC3)ccc21 | -2.01
22 | COc1ccc([C@H]2CC(=O)C=C(c3cccc(Cl)c3O)C2)cc1OC | 9
23 | CCn1c(CCCc2ccc(OC)c(C)c2)n[nH]c1=S | 13.7
24 | Cc1ccc(N2C(=O)C3C4C=CC(CC4)C3C2=O)cc1Cl (stereo not shown) | 16.3
25 | CC(C)c1onc(C(=O)N2CCC3(CC2)OCCO3)c1[N+](=O)[O-] | 3.48
26 | CC(=NCCCn1ccnc1)c1c(O)n(C2CCCCC2)c(=O)[nH]c1=O | 7.29
27 | COc1ccccc1-c1cc(C(F)(F)F)nc(S(C)(=O)=O)n1 | 9.42
28 | COc1ccc(S(=O)(=O)N2CCC(NC(=O)C3CCCCC3)CC2)cc1 | 11.4
29 | Cc1cc(SCC(N)=O)nc(SCC(=O)c2ccccc2)n1 | -5.09
30 | Cc1cc(CNC(=O)c2ccc3nc(Cc4ccccc4F)oc3c2)nn1C | 13.2
31 | COc1ccc(C(=O)NCCC(C)C)cc1S(=O)(=O)N1CCOCC1 | 2.3
32 | NS(=O)(=O)c1ccc(CCNC(=O)CSc2ccc3ccccc3c2)cc1 | 10.7
33 | Clc1ccc(Oc2nnnn2-c2ccccc2)cc1 | -1.29
34 | Cc1cccc(NS(=O)(=O)c2cc(C(=O)NCCC3=CCCCC3)ccc2Cl)c1 | 7.03
35 | COc1ccc(-n2nc(C(=O)NCC(=O)N3CCCCC3)c3ccccc3c2=O)cc1 | 9.59
36 | COc1ccc(NC(=O)CSc2nnc(NC(=O)c3ccccc3C(=O)O)s2)cc1 | 5.47
37 | CCCN(CCC)CCCNC(=O)c1cc2c(=O)[nH]c3ccccc3c2n1C | 10.7
38 | N=C1C(c2nc3ccccc3s2)=C(O)CN1NC(=O)c1ccco1 | 0.934
39 | CC(C)CC(=O)Nc1ccccc1N1CCOCC1 | 8.95
40 | c1cnc(NC2C3CC4CC(C3)CC2C4)nc1 (stereo not shown) | 6.75

Row | Structure (SMILES) | hERG current change (%, negative = inhibition) at 1uM [%]
41 | CNC(=O)c1csc(-c2ccc(C)cc2)n1 | 11.7
42 | COc1ccc(C(=O)CSc2nnc(CNC(=O)c3ccc(OC)cc3)n2C)cc1 | 11.5
43 | CCOc1ccccc1NC(=O)NC(=O)N(C)S(C)(=O)=O | 2.02
44 | O=S(=O)(Nc1ncccn1)c1ccccc1 | 7.28
45 | CCOC(=O)c1c(NC(=O)CSc2nnc(-c3ccccc3)o2)sc(C(C)=O)c1C | 9.59
46 | O=C(Nc1c2c(nn1-c1ccccc1)CS(=O)(=O)C2)c1ccccc1C(F)(F)F | 11.4
47 | O=C(O)CCc1nc(-c2cccs2)no1 | 11.6
48 | COc1ccc(CNC(=O)c2ccc(Cn3cc(Br)cn3)o2)cc1 | 13.9
49 | O=c1[nH]c(=O)n(C2CCCO2)cc1F (stereo not shown) | 2.04
50 | C/C(=C\c1ccccc1)C(=O)N1CCN(c2cccc(C(F)(F)F)c2)CC1 | 2.79
51 | CCCNC(=O)c1onc(CSc2ccc(Cl)cc2)c1C(=O)NCC1CC1 | 2.65
52 | COc1ccc(NS(=O)(=O)c2ccc(O)c(C(=O)OCC(=O)N3CC(C)OC(C)C3)c2)cc1 (stereo not shown) | 12.3
53 | COc1ccc(CNC(=O)CCS(=O)(=O)c2ccc3c(c2)NC(=O)C(C)S3)cc1 (stereo not shown) | 14.6
54 | CCOc1ccc(-c2csc(NC(=O)C3CCCO3)n2)cc1 (stereo not shown) | 5.89
55 | O=C(NC1CCCCC1)N1CCN(Cc2nc3ccccc3c(=O)[nH]2)CC1 | -1.68
56 | Cc1cccc(CN2CCC(C(=O)Nc3cccc(-c4cscn4)c3)CC2)n1 | -4.56
57 | O=C(C1CCC(CNS(=O)(=O)c2cccs2)CC1)N1CCN(c2ccc(Cl)cc2)CC1 (stereo not shown) | -15.6
58 | CC(O)CNc1nc(Cl)c(C#N)s1 (stereo not shown) | 2.67
